Laboratory results: the supplement of paper PMC11417369
± gives the standard deviation of the averaged measurements. The list shows a part of the results.

Tested on: PfAP2-EXP AP2 domain (GST-tagged)
Assay: gcPBM binding intensity (ln(normalized median fluorescence intensity)); higher = stronger DNA binding
Outline: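 For binding intensity, the highest Masliner-normalised natural-log median intensity across replicate spots of either probe orientation was taken. Protein bound to the array was stained with Alexa488 anti-GST antibody and scanned at 488 nm. The protein, GST-tagged P. falciparum DNA-binding domains from E. coli at about 25 μg on average, had been applied for 1 h to an Agilent 4 × 180k array of primer-extended double-stranded 36-bp intergenic genomic probes and negative controls.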

Sequence	gcPBM binding intensity (ln)
TACACCTGCACGATTGCACACAAATATGTTTTGAAG [CACACA_site8656]	8.79 ± 0.33
TTATATATATATATATAATATATATATATTTAAATA [XGTACX_negctrl_site453]	8.03 ± 0.16
TATAGATGTGGTTTATGTACATACTATAAAAAATCA [XGTACX_site1400]	8.74 ± 0.33
AAGAATATAATCTTCACACATATATATATATATATA [CACACA_site5927]	10.2 ± 0.33
AAGGACAACAAACAAACACACACAAAAAAAAAATAA [CACACA_site9263]	8.59 ± 0.6
TATATATCTTTATGCACACACAAAGAAAATTTTCCT [CACACA_site7366]	8.97 ± 0.092
ATTAATTTAATTTGAATTATTTTATTATATTATTAT [XGTACX_negctrl_site10]	8.19 ± 0.46
GTTTGAATATATCAGGTGCATTTATAATTCATATGA	8.55 ± 0.16
AGATGAACTAAAAAGGTGCTAAATATGTGACCACTG [GTGCAC_site9406]	8.88 ± 0.36
TAATTAAATATTTCAGTGCATTATTTTATGATCCAT [GTGCAC_site9456]	8.86 ± 0.51
TTTTTTTTAGTATGAACACACATATAGATTATAAAA [CACACA_site7391]	8.27 ± 0.39
ATTTAGAATGTTCCTACACACCAAATTTAAGTGTGC [CACACA_site7161]	8.58 ± 0.47
TACATACACAGACACACACACATATAAATATAAATA [CACACA_site7641]	8.71 ± 0.47
ATATTATAGATATACACACACACATGCATGCACATA [CACACA_site6203]	9.835 ± 0.092
ATAAGAAGAAGAAAAACACACATATGTAAATATATA [CACACA_site3138]	8.74 ± 0.71
TGTGAAATAAAATTTATACACACTTGCTAAATGATC [CACACA_site181]	8.34 ± 0.26
CTTTTTTTTTTAAATAGTACTTTCTCGTATACTCAT [XGTACX_site1842]	8.77 ± 0.49
AAGAAAAATGTGTTTTTTTTTTTTTTTTTTTTCAAT [TGCATGCA_negctrl_site404]	7.85 ± 0.47
TATAAATATAAATACACACACACACGCCAAAGCGTA [CACACA_site6181]	8.49 ± 0.36

Sequence	gcPBM binding intensity (ln)
TTTTTTTATTTTTGTTGTACTTATAATTCTGTAAAA [XGTACX_site7344]	8.77 ± 0.43
TACGTTATATACAACTGTACTTGGATAATTATTAAC [XGTACX_site5614]	8.56 ± 0.31
TACAAATTAATATGTACACACAAATATAAATATGTA [CACACA_site7016]	8.42 ± 0.33
AAGTTTTTTTCTTTTTTTCTCTCTTTTTTTTTTTTT [XGTACX_negctrl_site613]	8.19 ± 0.51
TTTTCTTTTTTGAACTGTACGCGTAAATTTAAAAAG [XGTACX_site882]	8.57 ± 0.26
GATATGATTAACTTATGTTATTCTTGATGATTACGT [CACACA_negctrl_site354]	8.45 ± 0.35
TTTTTTATTTATTGTTATACATCTTACTACTTATAA [GTGCAC_negctrl_site381]	8.73 ± 0.38
AATATATTTATATATAGTACTTTTATAATATCGTTT [XGTACX_site6658]	8.3 ± 0.33
AATACACATAATACATGTACTCACATTGTTATAACA [XGTACX_site4129]	8.88 ± 0.46
AAATATTTTTTAATGTGTACATAGAACATATATATA [XGTACX_site3136]	8.55 ± 0.35
ATAATATATATATTATGTACATATAAATTTTTTTTT [XGTACX_site5826]	8.37 ± 0.38
TATATACCTATATATACACACAAATACATAAGCTTC [CACACA_site1369]	8.64 ± 0.4
TTTTTTAAAAAACAAACACACACGTAGAAAAAAAAA [CACACA_site826]	8.94 ± 0.51
TAATTATATGGATACACACACATACATTTACATAAC [CACACA_site5744]	8.68 ± 0.43
ACTTATTTATTTTTAGTGCATTTAGTTTTATTTTAT	9.12 ± 0.12
TATAACTATAAAAGGAGTACTATATATATATATATA [XGTACX_site1388]	9.98 ± 0.32
TAAAAAGAAAAAAAGAGTACAAACAAAATAATAATT [XGTACX_site6071]	8.89 ± 0.41
TATTTGCAATGCAAATGTACATGAATTTTTTTAATG [XGTACX_site7474]	8.48 ± 0.26
TCTACAAAATTATCATGTACATATTATTATAATTAT [XGTACX_site6585]	8.73 ± 0.48

Sequence	gcPBM binding intensity (ln)
AATAGTACAAAAAAAAAAAAAAAAAAAAAAAAAAAA [CACACA_negctrl_site1376]	7.97 ± 0.42
AGTATACACAAACACACACACACAAAAAAAAAAAAA [CACACA_site8036]	8.21 ± 0.47
GAATGAATGATAAATTTTTTTTTCTTTTTTTTTTTG [CACACA_negctrl_site333]	7.97 ± 0.49
TGTTATATATATACAAACATACACATTTATAAACAA [TGCATGCA_negctrl_site235]	8.8 ± 0.52
GTTCAAATTCTTATACCTTTTTATTGAGCCATAATA [CACACA_negctrl_site210]	8.65 ± 0.44
TTATGATCATTTATATGTACACATAATTTTTGTGCT [XGTACX_site5568]	8.66 ± 0.34
TATTAATTTCTTTTTTCTCATCACTTTCAAAATGAA [CACACA_negctrl_site1055]	8.5 ± 0.45
AAAAAAAGAAAAAAAACACACACAAATATAAATAAA [CACACA_site8309]	8.59 ± 0.66
AGCATATATTAAACATGTACATAAATATATTATATA [XGTACX_site1451]	8.61 ± 0.2
AGAGAAGAAAACAAAACACACACATATATCTTAATA [CACACA_site8699]	8.63 ± 0.71
AACTTAAAAAAAAAAAAAAAAAAAAAAAAAAAAAAA [GTGCAC_negctrl_site34]	7.96 ± 0.2
AGAAATCATCTGAATTGTACTAACAATTTTTTTTAA [XGTACX_site6191]	8.26 ± 0.2
ATAAAATGGGCAAACACACACAAAAAAAAGATATAT [CACACA_site1648]	9 ± 0.44
AGGGGCGAAACAAAGGTGCTTTTATAAAATATGTAA	8.84 ± 0.39
CCCAATAATTAAACAACACACATATATATCTGTAAT [CACACA_site5667]	9.26 ± 0.65
TATTATAATAAAATATGTACACACATACACACATAT [XGTACX_site2360]	8.8 ± 0.33
CTTAAATCTACTATTTGTACATATTTTATTATTAAA [XGTACX_site6151]	8.58 ± 0.37
TAGATAAAATTAAAATGTACAAACCTTTTCCCTTAT [XGTACX_site1136]	8.09 ± 0.35
